Laboratory results reported in the supplement of paper PMC7826260.
Some of the results follow. Each Rep nickase domain was tested in vitro on the same pool of single strands at 3 µM enzyme and 37 °C for 1 h; the strands have 90 letters, of which the middle is given. Values are log2 of uncut reads against the no-enzyme pool; uncut sequences lie near 0, cut ones below; no hit call is given. Reads are scaled to the total; uncut strands gain when others are lost, and binding without cutting may add a little.

How the values were obtained:
Test in all cases: uncleaved DNA left, log2 of reads against the no-enzyme library (log2 ratio); higher = less cleavage (more negative = more Rep cleavage of the k-mer); sequences stand for … in CTCGTCCG…ACCGGAGA
[1] = test system: T1, Rep nickase domain of Muscovy duck circovirus
T1 sequence (residues 1-111 of Rep, tag left off): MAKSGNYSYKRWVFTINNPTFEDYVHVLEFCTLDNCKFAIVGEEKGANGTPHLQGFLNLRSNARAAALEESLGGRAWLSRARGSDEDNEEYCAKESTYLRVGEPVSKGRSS
Procedure: (§1)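 A pool of 90-nt single-stranded DNAs with seven random bases just before the constant AC of the nick site (name = the seven bases) was cut by 3 µM recombinant His6-SUMO-tagged Rep nickase domain (300 nM DNA, 50 mM HEPES pH 8.0, 50 mM NaCl, 1 mM MnCl2, 1 h, 37 °C, three replicates). Uncut DNA was amplified and sequenced.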

[2] = test system: T2, Rep nickase domain of banana bunchy top virus
T2 sequence (residues 1-94 of Rep, tag left off): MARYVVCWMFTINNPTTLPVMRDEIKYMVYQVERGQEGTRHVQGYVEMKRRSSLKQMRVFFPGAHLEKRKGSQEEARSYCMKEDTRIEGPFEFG
Procedure: as §1

[3] = test system: T3, Rep nickase domain of cabbage leaf curl virus
T3 sequence (residues 1-116 of Rep, tag left off): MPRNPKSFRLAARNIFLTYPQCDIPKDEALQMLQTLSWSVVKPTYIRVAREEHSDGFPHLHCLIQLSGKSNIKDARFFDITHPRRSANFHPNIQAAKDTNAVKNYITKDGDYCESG
Procedure: as §1

[4] = test system: T4, Rep nickase domain of chickpea chlorotic dwarf virus
T4 sequence (residues 1-124 of Rep, tag left off): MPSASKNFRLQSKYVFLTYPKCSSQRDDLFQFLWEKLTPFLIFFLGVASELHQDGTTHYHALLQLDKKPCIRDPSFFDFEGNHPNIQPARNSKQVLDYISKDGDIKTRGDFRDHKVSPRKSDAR
Procedure: as §1

[5] = test system: T5, Rep nickase domain of faba bean necrotic yellows virus
T5 sequence (residues 1-98 of Rep, tag left off): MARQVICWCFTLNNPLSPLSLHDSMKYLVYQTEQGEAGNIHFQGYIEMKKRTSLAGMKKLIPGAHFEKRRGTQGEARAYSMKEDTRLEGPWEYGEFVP
Procedure: as §1

[6] = test system: T6, Rep nickase domain of maize striate mosaic virus
T6 sequence (residues 1-117 of Rep, tag left off): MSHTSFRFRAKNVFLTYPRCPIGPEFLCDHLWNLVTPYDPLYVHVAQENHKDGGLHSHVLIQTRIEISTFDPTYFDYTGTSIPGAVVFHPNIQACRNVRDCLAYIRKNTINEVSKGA
Procedure: as §1

[7] = test system: T7, Rep nickase domain of porcine circovirus 2
T7 sequence (residues 2-116 of Rep, tag left off): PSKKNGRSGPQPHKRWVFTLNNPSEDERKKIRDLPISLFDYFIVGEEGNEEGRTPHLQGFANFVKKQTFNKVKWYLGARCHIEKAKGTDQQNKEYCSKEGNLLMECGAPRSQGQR
Procedure: as §1

[8] = test system: T8, Rep nickase domain of tomato golden mosaic virus
T8 sequence (residues 1-124 of Rep, tag left off): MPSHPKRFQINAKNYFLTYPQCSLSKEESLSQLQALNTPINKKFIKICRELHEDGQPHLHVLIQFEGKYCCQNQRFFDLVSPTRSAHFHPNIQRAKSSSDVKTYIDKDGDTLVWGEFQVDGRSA
Procedure: as §1

[9] = test system: T9, Rep nickase domain of tomato yellow leaf curl virus
T9 sequence (residues 1-136 of Rep, tag left off): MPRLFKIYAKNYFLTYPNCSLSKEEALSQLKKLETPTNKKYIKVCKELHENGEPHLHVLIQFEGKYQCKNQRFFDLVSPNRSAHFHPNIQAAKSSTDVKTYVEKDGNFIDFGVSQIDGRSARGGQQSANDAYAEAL
Procedure: as §1

[10] = test system: T10, Rep nickase domain of wheat dwarf virus
T10 sequence (residues 1-137 of Rep, tag left off): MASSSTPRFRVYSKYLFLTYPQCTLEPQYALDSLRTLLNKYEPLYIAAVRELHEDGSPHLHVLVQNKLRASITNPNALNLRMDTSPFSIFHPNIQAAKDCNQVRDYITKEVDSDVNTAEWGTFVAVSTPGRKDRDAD
Procedure: as §1

| Sequence | uncleaved DNA left (log2) [1] | uncleaved DNA left (log2) [2] | uncleaved DNA left (log2) [3] | uncleaved DNA left (log2) [4] | uncleaved DNA left (log2) [5] | uncleaved DNA left (log2) [6] | uncleaved DNA left (log2) [7] | uncleaved DNA left (log2) [8] | uncleaved DNA left (log2) [9] | uncleaved DNA left (log2) [10] |
| --- | --- | --- | --- | --- | --- | --- | --- | --- | --- | --- |
| TTTCAAC | 0.087 | 0.0139 | 0.399 | -0.955 | 0.0135 | 0.376 | 0.0684 | 0.112 | 0.116 | 0.0822 |
| CGGGAAT | 0.175 | 0.0603 | 0.788 | 1.95 | 0.164 | 2.2 | 0.132 | 0.0204 | 0.127 | 0.29 |
| CGCTGAT | -0.0601 | -0.213 | 0.0323 | 0.534 | -0.0437 | 0.706 | -0.62 | -0.122 | -0.0347 | 0.0183 |
| CACCATT | -0.0675 | -0.101 | -0.954 | -2.67 | -0.0497 | -1.16 | -2.73 | -0.354 | 0.00262 | -0.0757 |
| TCCCTAC | 0.0617 | 0.0183 | 0.0676 | -1.79 | 0.0634 | -0.415 | -0.16 | 0.0566 | -0.0321 | 0.0321 |
| CCAGAAT | 0.141 | 0.156 | 0.287 | 0.215 | 0.184 | 0.484 | 0.0552 | 0.166 | 0.18 | 0.153 |
| TGCGGAG | 0.0451 | -0.0363 | -0.301 | -0.325 | -0.0922 | -0.681 | 0.0273 | 0.0115 | 0.00885 | -0.0673 |
| GGGCATC | -0.096 | 0.00356 | 0.86 | 1.92 | -0.0762 | 2.23 | 0.143 | -0.0971 | -0.0466 | 0.116 |
| TGAAGTA | -0.0253 | -0.107 | -0.0548 | -0.973 | 0.0185 | -0.438 | -0.0667 | -0.0727 | 0.0321 | -0.0792 |
| TTGGACA | 0.115 | 0.256 | 0.847 | 1.78 | 0.00364 | 2.05 | 0.322 | 0.0781 | 0.142 | 0.233 |
| GCTTAAG | -0.0579 | 0.071 | -0.496 | -0.49 | 0.104 | -1.04 | 0.23 | -0.0101 | 0.0575 | -0.0935 |
| ACGTAGT | -0.463 | -0.0283 | -0.14 | -0.454 | -0.165 | -0.622 | -3.41 | 0.121 | -0.169 | -0.0889 |
| ACATGTG | 0.26 | 0.125 | -0.404 | 0.863 | 0.153 | 0.042 | 0.307 | 0.083 | 0.179 | -0.0326 |
| TATGACC | 0.0482 | -0.0139 | 0.103 | 0.309 | -0.114 | 0.595 | 0.0556 | 0.0407 | 0.023 | 0.0316 |
| ACAGGGA | 0.0628 | -0.023 | -0.0146 | 0.415 | -0.0767 | -0.4 | 0.153 | 0.00277 | -0.0767 | -0.0329 |
| AGTCACT | 0.0552 | -0.153 | 0.141 | -0.64 | -0.651 | 0.728 | -3.08 | -0.0238 | 0.0631 | 0.0811 |
| CACACCC | -0.228 | -0.223 | -0.173 | -1.07 | -0.181 | -0.45 | -0.453 | -0.228 | -0.202 | -0.209 |
| CCCGGGG | -0.121 | -0.161 | 0.7 | 1.03 | -0.0212 | 1.72 | 0.176 | 0.0196 | -0.0903 | -0.0323 |
| TTGACAC | 0.114 | 0.108 | 0.366 | 0.626 | 0.165 | 0.463 | 0.162 | 0.0756 | 0.103 | 0.249 |
| GATTTGT | -2.7 | -1.99 | 0.151 | 0.0385 | 0.145 | -0.00687 | -2.9 | 0.102 | 0.0996 | 0.0223 |
| GCCACTC | -0.0575 | 0.029 | 0.104 | 0.175 | -0.0584 | 0.106 | -0.023 | 0.0105 | 0.0796 | 0.0269 |
| GGCTGAG | 0.115 | -0.0539 | 0.425 | 0.997 | 0.0134 | 0.587 | 0.299 | 0.0728 | 0.163 | 0.201 |
| TCGTCAG | 0.152 | 0.123 | 0.11 | 0.246 | 0.104 | -0.365 | 0.201 | 0.22 | 0.121 | -0.0302 |
| TCCTTGC | -0.0196 | -0.0854 | -0.739 | -0.4 | 0.0269 | -1.17 | 0.102 | -0.0577 | -0.0218 | -0.189 |
| GACGGCT | -0.0791 | -0.172 | 0.0267 | 0.00546 | -0.0349 | 0.182 | -0.0686 | -0.103 | -0.114 | -0.112 |
| TGTGCAT | -0.0634 | -0.0113 | 0.296 | 0.895 | -0.0228 | 0.916 | 0.055 | -0.147 | 0.00445 | -0.00797 |
| ACATATC | 0.0512 | -0.0121 | -0.171 | -0.0619 | 0.15 | -0.955 | 0.119 | 0.0509 | -0.0073 | 0.0225 |
| ATGTACC | -0.00505 | 0.0382 | 0.0168 | -0.304 | -0.031 | -0.0895 | -0.291 | -0.00998 | -0.0439 | -0.0255 |
| GCACTGG | -0.0215 | 0.033 | -0.125 | 0.375 | -0.171 | -0.188 | 0.141 | 0.00382 | -0.061 | -0.0828 |
